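Where inhibition never reached the appropriate level, the endpoint shown equals the highest concentration tested. Otherwise, values were interpolated linearly from a five-concentration, 48-hour dose response in 96-well plates. The concentration for 50% growth inhibition is given as GI50. The concentration for full growth arrest is given as TGI.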
Test system: NCI-H322M lung
Test: growth of human tumour cells (NCI), 48 h

SMILES | GI50 | TGI
CC(=O)Nc1ccc(-c2cn(-c3cccc(C(=O)Nc4ccc(F)c(C(F)(F)F)c4)c3)nn2)cn1 | 17.3 µM | 34.3 µM
COc1cc2oc(-c3cccc(C(=O)Nc4cccc([N+](=O)[O-])c4)c3)cc(=O)c2c(OC)c1OC | 6.46 µM | > 100 µM
O=C(CCl)Nc1ccc(C(=O)/C=C/c2cc3ccccc3nc2Cl)cc1 | 2.7 µM | 8.14 µM
CC[C@@]1(O)C(=O)OCc2c1cc1n(c2=O)Cc2c-1nc1cc(F)c(C)c3c1c2[C@@H](N)CC3 | < 0.01 µM | 1.35 µM
COc1ccc(N(C)c2cc(C#N)nc3ccccc23)cc1N | < 0.01 µM | > 100 µM
C=CC(=O)Nc1ccc(C(=O)/C=C/c2ccc(N(C)CCF)cc2)c(O)c1 | 4.27 µM | 17.5 µM
N#Cc1c(-c2ccc(F)cc2)nc(SCc2ccccc2)nc1N1CCNCC1 | 14.3 µM | 27.9 µM
